Experimental data published in the CheMixHub viscosity set.
The source gives many values for each of these; only a part stands here.

Assay: xn = mol fraction of the nth substance listed
Conditions: 101 kPa

OCCCCO + CS(C)=O
318.15 K
Conditions	viscosity [mPa·s]
x1 = 0.2709	2.87
x1 = 0.3183	3.26
x1 = 0.3663	3.71
x1 = 0.415	4.28
x1 = 0.4644	4.95
x1 = 0.5145	5.74
x1 = 0.5653	6.7
x1 = 0.6169	7.9
x1 = 0.6692	9.3
x1 = 0.7223	11.1
x1 = 0.7762	13.3
x1 = 0.8309	16.2
x1 = 0.8864	19.6
x1 = 0.9428	24.4

CC(C)C(=O)O + O
viscosity [mPa·s]
Conditions	301.15 K	311.15 K	313.15 K	315.15 K
x1 = 0.0106	0.9656	–	0.7325	0.7031
x1 = 0.0222	1.095	–	0.8254	0.7882
x1 = 0.0348	1.241	0.9774	0.9348	0.885
x1 = 0.0486	1.423	1.111	1.061	1.006
x1 = 0.0545	1.512	1.17	1.115	1.061
x1 = 0.0638	1.651	1.262	1.2	1.154
x1 = 0.0737	1.795	1.357	1.289	1.234
x1 = 0.0806	1.896	1.422	1.349	1.286
x1 = 0.0915	2.068	1.519	1.438	1.361
x1 = 0.1114	2.326	1.675	1.584	1.494
x1 = 0.12	2.415	1.727	1.634	1.546
x1 = 0.129	2.461	1.773	1.68	1.591
x1 = 0.1433	2.516	1.832	1.74	1.652
x1 = 0.1698	2.573	1.912	1.811	1.723
x1 = 0.1999	2.623	1.974	1.872	1.771
x1 = 0.2347	2.672	2.022	1.92	1.819
x1 = 0.323	2.694	2.071	1.973	1.872
x1 = 0.4499	2.558	2.008	1.919	1.831
x1 = 0.4996	2.472	1.951	1.866	1.791
x1 = 0.6404	2.132	1.726	1.658	1.596
x1 = 0.7953	1.717	1.427	1.377	1.317
x1 = 0.9529	1.293	1.107	1.077	1.035

OCCCCO + O
viscosity [mPa·s]
Conditions	293.15 K	298.15 K	303.15 K	308.15 K	313.15 K	318.15 K	323.15 K
x1 = 0.005	1.126	0.97	0.86	0.779	0.72	0.643	0.586
x1 = 0.01	1.272	1.075	0.96	0.863	0.77	0.7	0.626
x1 = 0.015	1.46	1.193	1.067	0.942	0.853	0.758	0.674
x1 = 0.02	1.616	1.314	1.191	1.068	0.958	0.845	0.737
x1 = 0.1	–	–	–	–	2.209	1.935	–
x1 = 0.2001	–	–	–	–	5.727	4.896	–
x1 = 0.3007	–	–	–	–	7.839	6.635	–
x1 = 0.4006	–	–	–	–	11.6	9.664	–
x1 = 0.4977	–	–	–	–	15.78	13.09	–
x1 = 0.6002	–	–	–	–	20.77	17.21	–
x1 = 0.6982	–	–	–	–	24.88	20.49	–
x1 = 0.7993	–	–	–	–	29.63	24.24	–
x1 = 0.8969	–	–	–	40.8	33.39	27.06	–
